About 3,100 (0.97%) of roughly 320,000 compounds were called active. Inconclusive results, whose numbers are uncertain, are shown with a selection of clear calls.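 How the source made its calls: active means mean replicate inhibition of at least 70% and a set share of replicates each scoring 70 or more; inconclusive means meets just one of the two criteria; inactive means fails both criteria.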
molecular target: Scavenger receptor class B member 1 (Mus musculus) (UniProt Q61009); test: inhibitors of SR-BI mediated HDL lipid uptake, primary screen, ldlA[mSR-BI] cells, fluorescence, single point (AID 488896); settings: ldlA[mSR-BI] CHO cells, DiI-HDL uptake fluorescence, 3 h; at 12.5 µM; hits give high values;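 further: 0% = median of neutral control wells and 100% = median of positive control wells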
Sequence of UniProt Q61009 (Q61009 whole entry, looked up): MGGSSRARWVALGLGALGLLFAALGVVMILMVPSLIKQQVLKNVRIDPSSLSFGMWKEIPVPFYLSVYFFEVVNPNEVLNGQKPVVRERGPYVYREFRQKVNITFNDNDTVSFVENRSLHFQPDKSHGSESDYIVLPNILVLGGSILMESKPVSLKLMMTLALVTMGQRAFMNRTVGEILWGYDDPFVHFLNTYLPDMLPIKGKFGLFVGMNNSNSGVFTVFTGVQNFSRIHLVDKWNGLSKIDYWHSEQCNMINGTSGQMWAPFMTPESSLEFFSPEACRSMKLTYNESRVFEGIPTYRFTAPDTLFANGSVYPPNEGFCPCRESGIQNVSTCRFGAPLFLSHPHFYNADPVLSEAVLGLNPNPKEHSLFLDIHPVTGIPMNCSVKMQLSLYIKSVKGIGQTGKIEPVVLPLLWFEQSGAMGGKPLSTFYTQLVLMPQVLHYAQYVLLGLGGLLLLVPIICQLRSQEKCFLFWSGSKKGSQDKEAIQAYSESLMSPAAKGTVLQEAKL

| SMILES | inhibition |
| --- | --- |
| CC(=O)NCc1ccc(S(=O)(=O)N2CCN(S(=O)(=O)c3ccc4ccccc4c3)CC2)cc1 | inactive: -8.71% |
| CN(C)c1ccc(NC(=O)/C=C/c2c(Cl)cccc2Cl)cc1 | inconclusive: 71.2% |
| CCCCN(CC)CCNC(=O)c1nn(-c2ccc(OC)cc2)c(=O)c2c1c1ccccc1n2C | inactive: 6.19% |
| COc1ccc(-c2cc(C(=O)OCC(=O)N3CCOCC3)c3ccccc3n2)cc1 | inconclusive: 75% |
| CCCn1c(C)nc2cc(Cl)c(N3CCN(c4nc(-c5ccc(C)cc5)cs4)CC3)cc21 | inconclusive: 72.5% |
| CC1CC(C)CN(S(=O)(=O)c2ccc(C(=O)N3CC(C)OC(C)C3)cc2)C1 (stereo not given) | inactive: -14.9% |
| CC(=O)Nc1sc(N/N=C/c2ccccc2F)nc1-c1ccc(C)cc1 | inconclusive: 70.1% |
| COc1ccc(NC(=O)c2c(N)no[n+]2[O-])cc1 | inactive: -26.6% |
| CC(C)N(C#N)c1nc(N2CCOCC2)nc(N2CCOCC2)n1 | inactive: -7.03% |
| CCOC(=O)c1sc(NC(=O)c2ccc(OC)cc2)nc1C | inconclusive: 77.3% |
| Cn1ccnc1CN1CCCCC1C(=O)Nc1ccc(Oc2cccnc2)cc1 (stereo not given) | inactive: -20.5% |
| Cn1nc(C(F)(F)F)c2cc(C(=O)Nc3ccc(F)c(Cl)c3)sc21 | inconclusive: 72.8% |
| O=C(NNc1nc(-c2ccc(Cl)cc2)cs1)c1ccco1 | inactive: -16.8% |
| CO/N=C/C(=N\Nc1ccc(OC)cc1)C(=O)c1ccc(OC)cc1 | inconclusive: 70% |
| COc1cc(C(=O)NCCC(C)C)c([N+](=O)[O-])cc1OC | active: 82.2% |
| CCNC(=S)N/N=C/c1ccc(OCCOc2ccccc2C)cc1 | inconclusive: 72.4% |
| COc1ccc(Nc2ncnc3scc(-c4ccc(OC)cc4)c23)cc1 | inconclusive: 73.9% |
| CCOC(=O)c1c(-c2ccc(C)o2)csc1NC(=S)NC(=O)c1cccs1 | inconclusive: 84.9% |
| Cc1ccc(NC(=S)NNc2ncc(C(F)(F)F)cc2Cl)c(C)c1 | inactive: 17.5% |
| COc1ccccc1NC(=O)Nc1nc(CC(=O)N2CCN(c3ccccc3)CC2)cs1 | inconclusive: 71.1% |
| COc1cc(/C=C/C(=O)Nc2ccc(OC)c(S(=O)(=O)N3CCOCC3)c2)ccc1OCC#N | inconclusive: 71.4% |
| CCN(CC)S(=O)(=O)c1ccc(/C=C/C(=O)Nc2ccc(N3CCOCC3)cc2)cc1 | inconclusive: 71.4% |
| CC1=C(C)/C(=N\OS(=O)(=O)c2ccc(C)cc2)C=CC1=O | active: 91.2% |
| CC1CN(S(=O)(=O)c2ccc(C(=O)Nc3nc(-c4cc5ccccc5o4)cs3)cc2)CC(C)O1 (stereo not given) | inconclusive: 70.5% |
| C/C(=N\N=C(/N)SC1CC(=O)N(c2ccccc2)C1=O)c1cccs1 (stereo not given) | inconclusive: 70.4% |
| CCOC(=O)N1CCC(N(CCOC)C(=S)Nc2cccc(SC)c2)CC1 | inconclusive: 78.4% |
| CC(=O)c1cccc(NS(=O)(=O)c2ccc(-c3cnc(C4CC4)o3)cc2)c1 | inactive: -21.7% |
| CC(C)OC(=O)CC(=O)CSc1nc(-c2ccc(F)cc2)cc(-c2ccccc2)c1C#N | inconclusive: 70.2% |

| SMILES | inhibition |
| --- | --- |
| COc1ccc(OC)c(NC(=O)c2[nH]c(C)c(C(C)=O)c2C)c1 | inconclusive: 71.3% |
| CC1C(C)N(C(=O)CCl)c2ccccc2N1C(=O)CCl (stereo not given) | inactive: -12% |
| O=C(Nc1ccccc1N1CCN(c2ccc(F)cc2)CC1)c1ccccc1 | inconclusive: 72.8% |
| Cc1cc(NC(=O)CSc2nc3ccccc3n2CCC#N)no1 | inactive: -9.44% |
| COc1ccc(C2c3sc(=O)[nH]c3SC3C4CCC(C4)C23)cc1OC (stereo not given) | inconclusive: 71.6% |
| COCCCNc1nc2c(-c3cccc(C)c3)nnn2c2ccc(Cl)cc12 | inconclusive: 70.9% |
| Cc1nnc(-c2ccccc2)nc1N(C)C | inactive: -3.38% |
| Cc1cc(NC(=O)/C=C/c2ccco2)ccc1NC(=O)c1ccccc1 | inconclusive: 70% |
| CCOC(=O)N1CCN(C(=O)CNC(=O)c2ccc(Br)o2)CC1 | inactive: 5.28% |
| CC(=O)Nc1ccc(NC(=O)C(C)OC(=O)c2c(NC(C)=O)sc(C)c2C)cc1 (stereo not given) | inconclusive: 71.6% |
| Cn1c(-c2c(N)n(C3CCCC3)c3nc4ccccc4nc23)nc2ccccc21 | inconclusive: 76.8% |
| COc1ccc(C)cc1NC(=O)C(=O)c1cn(CC(=O)N2CCCC2)c2ccccc12 | inconclusive: 76.9% |
| CCOC(=O)C1=C(CNCCOc2ccc(OC)cc2)NC(=O)NC1c1ccc2c(c1)OCO2 (stereo not given) | inconclusive: 71.9% |
| COc1ccc(-c2[nH]n(-c3ccc([N+](=O)[O-])cc3)c(=O)c2C=NCc2ccccc2)cc1 | active: 87.4% |
| CC(=O)Nc1nc(-c2ccccc2)nc(-c2ccccc2OC(C)=O)n1 | inconclusive: 75.4% |
| CCOC(=O)c1[nH]c2ccc(OC)cc2c1NC(=S)N1CCN(c2ccccc2OC)CC1 | inconclusive: 70.8% |
| O=C(COc1cc(O)c2c(=O)cc(-c3ccccc3)oc2c1)c1cccc([N+](=O)[O-])c1 | inconclusive: 71.6% |
| CCOc1ccccc1COC(=O)c1cccc(-n2cnnn2)c1 | active: 72.4% |
| COc1cc(C(=O)N=c2sc3ccccc3n2C)cc(OC)c1OC | inconclusive: 71.7% |
| CC(=O)COc1ccc2c(-c3ccccc3)cc(=O)oc2c1C | active: 72.5% |
| CCOc1ccccc1NC(=O)Nc1ccc(Cl)cc1 | inconclusive: 72.5% |
| Cc1ccc(Sc2nc(-c3ccccc3)nnc2C(F)(F)F)cc1 | inconclusive: 70.1% |
| Cc1ccc(/C=C/C(=O)Nc2ccc([N+](=O)[O-])c(NC(=O)/C=C/c3ccc(C)o3)c2)o1 | inconclusive: 70.2% |
| Cc1ccccc1Nc1nc(-c2ccccc2)c(C(=O)Nc2cccnc2)s1 | inconclusive: 76.3% |
| CC1=Nc2ccccc2/C1=C\c1sc(Nc2ccc(C)cc2)nc1O | active: 75% |
| COc1ccc(/C=N/NC(=O)c2cccc(NC(=O)c3ccc(Cl)cc3)c2)c(OC)c1 | inconclusive: 71.2% |
| C#CCOCCOCCOCCNc1nc(N2CCN(C(=O)CCCCCCCCCCNC(=O)Cn3cc(CCCCCN)nn3)CC2)nc(N2CCN(C(=O)CCCCCCCCCCNC(=O)[C@H]([C@@H](C)CC)n3cc(CCCCN=C(N)N)nn3)CC2)n1 | active: 84.3% |

From PubChem BioAssay AID488896 (Broad Institute, 2010)
